Measurements published in ChEMBL document CHEMBL1201862, “PubChem BioAssay data set” (2004).
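48-hour exposure; five concentrations; linearly interpolated endpoints. GI50 is the concentration that inhibits growth by half.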 Active and inactive are the calls of the source. Cut-off read from the data, not from the text of the source: active = GI50 up to about 1.1 µM and inactive = higher.

System: NCI-H322M
Experiment: DTP human tumour cell line panel, 48 h

SMILES | GI50
COc1ccc(CCCC(=O)O)c(C)c1 | inactive: > 100 µM
O=C(O)CC(Cc1ccc2c(c1)OCO2)C(=O)O (configuration not stated) | inactive: > 100 µM
CC(=O)OC12COC1CC(O)C1(C)C(=O)C(O)C3=C(C)C(O)CC(O)(C(OC(=O)c4ccccc4)C21)C3(C)C (configuration not stated) | inactive: 5.79 µM
Cn1c(=O)c2[nH]c(/N=N/N3CCN(CCO)CC3)nc2n(C)c1=O | inactive: > 100 µM
COc1ccc(-c2cc(-c3cc(OC)c(OC)c(OC)c3)cc(-c3cc4ccccc4oc3=O)n2)cc1 | inactive: 10.7 µM
O=C1CCCCC1C(O)(C(F)(F)F)C(F)(F)Cl (configuration not stated) | inactive: > 10 µM
O=C1C=CC(=C(c2ccccc2)c2ccc(O)cc2)C=C1 | inactive: 14.9 µM
COc1cccc(N2C(=O)CSC2c2cccc(Oc3ccccc3)c2)c1 (configuration not stated) | inactive: 6.08 µM
Nc1nc(Cl)cc(NCCCCCCNc2cc(Cl)nc(N)n2)n1 | inactive: 3.13 µM
O=C(Nc1nccs1)c1cc(C2=CC=CC([N+](=O)[O-])C=C2)nc(S)n1 (configuration not stated) | inactive: > 100 µM
N/N=C1\C(=O)N(c2ccc(Cl)c(Cl)c2)C(=O)C1C(=O)Nc1ccc(Cl)c(Cl)c1 (configuration not stated) | inactive: 49.1 µM
OCCOCn1nc(-c2ccccc2)nc1-c1cnccn1 | inactive: > 100 µM
CC1(O)CC23CC(O)C4(O)C(CC(O)C4(C)C)C(C)(O)C2CCC1C3O (configuration not stated) | inactive: > 100 µM
COC1OC2COC1(OC)C1OC(C)(C)OC21 (configuration not stated) | inactive: > 100 µM
CC(=O)N1OC(C)CC1Nc1ccc(Br)cc1 (configuration not stated) | inactive: > 100 µM
CCOC(=O)[C@H]1Nc2ccc(Cl)cc2[C@H]2c3ccccc3O[C@H]21 | inactive: 65.2 µM
CCCCCC(O)C1C(=O)OC(C)C(O)/C=C/C=C/C=C/C=C\C=C(\C)C(O)CC(O)CC(O)CC(O)CC(O)CC(O)CC1O (configuration not stated) | inactive: > 50 µM
O=C(CC(=O)C1CCOC1=O)C(=O)Nc1ccc(Cl)cc1Cl (configuration not stated) | inactive: > 100 µM
c1ccc2c(c1)SC1Sc3ccccc3[S+]21 (configuration not stated) | inactive: 56.1 µM

SMILES | GI50
O=C1Nc2ccccc2N/C1=C\C(=O)C(F)F | inactive: > 100 µM
O=[N+]([O-])c1ccc(C2=NOC(c3ccccc3F)N2C23CC4CC(CC(C4)C2)C3)cc1 (configuration not stated) | inactive: > 100 µM
CCOC(=O)CCc1c(C)c2c(OC(C)=O)cc(OC(C)=O)cc2oc1=O | inactive: 48.2 µM
COc1ccc2nc3ccc(OC)cc3c([S+]([O-])CCCl)c2c1 (configuration not stated) | inactive: 16.2 µM
C/C(=N\NC(N)=S)c1ccc2c(c1)Sc1ccccc1O2 | inactive: 4.82 µM
O=P1(N2CCOCC2)OCCO1 | inactive: > 100 µM
N#Cc1c(Cl)c2cccnc2n2c1nc1ccccc12 | inactive: 12.3 µM
COC(=O)Cc1c(/C=C/C(C)(C)n2cnc(CCN3C(=O)CCC3=O)c2)[nH]c2ccccc12 | inactive: > 100 µM
CC1CCC(O)/C=C/C(=O)OC(C)C(O)/C=C/C(=O)O1 (configuration not stated) | inactive: > 100 µM
CC[N+]1(C)CCC(O)(c2ccccc2)C(C(=O)c2ccccc2)C1 (configuration not stated) | inactive: 20.5 µM
CC1CCC2N(C1)CC1C3(O)CC45OC6(O)C(O)CCC4(C)C6CCC5C3(O)CC(O)C1(O)C2(C)O (configuration not stated) | inactive: > 100 µM
N#C/C(=C\c1cccc(O)c1O)C(N)=O | inactive: 42.7 µM
COc1cc(/C=C/C(=O)O)ccc1C(=O)O/C=C/c1ccccc1 | inactive: > 100 µM
Cc1ccc(S(=O)(=O)NC(=N)N(C)N=O)cc1 | inactive: > 100 µM
O=C(Nc1ccccc1)c1nn(-c2cc(S(=O)(=O)O)c([N+](=O)[O-])cc2Cl)[n+](-c2cc(S(=O)(=O)[O-])c([N+](=O)[O-])cc2Cl)n1 | inactive: > 100 µM
COc1cc(C2c3cc4c(cc3[C@@H](Nc3ccc(Oc5ccccc5)cc3)C3COC(=O)[C@H]23)OCO4)cc(OC)c1O (some centres not stated) | inactive: > 34.8 µM
CNc1cc2c(c3ccccc13)C(CCl)CN2C(=O)c1cc2cc(OC)c(OC)c(OC)c2[nH]1 (configuration not stated) | active: 0.0158 µM
COc1cc(O)c2c(c1)C(=O)c1cc3c(c(O)c1C2=O)C(OC1OC(C)C(O)C(O)C1OC)C(OC)C(C)(O)C3=O (configuration not stated) | inactive: 2.4 µM
